# Results: US9040542B2, “Solid forms of gyrase inhibitor (R)-1-ethyl-3-[6-fluoro-5-[2-(1-hydroxy-1-methyl-ethyl)pryimidin-5-yl]-7-(tetrahydrofuran-2-yl)-1H-benzimidazol-2-yl]urea” (priority 2011, dated 2015)
# Tested on: Haemophilus influenzae (Rd1 KW20) ATCC 51907
# Experiment: MIC, Protocol 2 microdilution broth, Gram negatives
# Format: cell-based
smiles,measurement,value
"CCNC(=O)Nc1nc2cc(-c3cnc(C(C)(C)O)nc3)c(F)c([C@H]3CCCO3)c2[nH]1 [Compound 24, 1-ethyl-3-[6-fluoro-5-[2-(1-hydroxy-1-methyl-ethyl)pyrimidin-5-yl]-7-[(2R)-tetrahydrofuran-2-yl]-1H-benzimidazol-2-yl]urea]",MIC,1.3 µg/mL
